Laboratory results as given in article PMC11995724, “Antibiotic target discovery by integrated phenotypic and activity-based profiling of electrophilic fragments” (Cell chemical biology, 2025).
In all, about 3,200 compounds went through this assay and about 75 (2%) showed an effect of 50% or more. The list shows a part of the results.

What follows are compounds tested on T1, S. aureus MSSA476. Settings: relative growth, OD600, TSB; 25 µM; inhibitor.
T1 construct: MSSA476
Design: species or system S. aureus MSSA476 (TSB) or V. cholerae SAD30 (LB); 384-well bacterial growth screen at 25 uM, OD600 relative to DMSO control
For CC(C)(C)C1CCc2c(sc(NC(=O)CCl)c2C#N)C1 (stereo not drawn) [5-E17, N-(6-tert-butyl-3-cyano-4,5,6,7-tetrahydro-1-benzothiophen-2-yl)-2-chloroacetamide], the “% of control remaining” value was 61.2022%.
In the case of Cc1cccc(C=C(C#N)C(=O)NC(C)c2ccccc2)c1 (stereo not drawn) [8-F18, 2-cyano-3-(3-methylphenyl)-N-(1-phenylethyl)prop-2-enamide], the “% of control remaining” value is reported as 93.61%.
Cc1ccc(NC(=O)C2(CNC(=O)C(C)Cl)CCCC2)cc1C (stereo not drawn) [7-J13, 1-[(2-chloropropanamido)methyl]-N-(3,4-dimethylphenyl)cyclopentane-1-carboxamide] was tested, and the “% of control remaining” value was 77.865%.
C=CC(=O)N1CCCC1c1nc(N(C)C)no1 (stereo not drawn) [2-C21, 1-{2-[3-(dimethylamino)-1,2,4-oxadiazol-5-yl]pyrrolidin-1-yl}prop-2-en-1-one] was tested, and the “% of control remaining” value was 104.439%.
In the case of C=CC(=O)N(CC)CC(=O)N1CC(C)(C)C1c1nccn1C (stereo not drawn) [2-J16, N-{2-[3,3-dimethyl-2-(1-methyl-1H-imidazol-2-yl)azetidin-1-yl]-2-oxoethyl}-N-ethylprop-2-enamide], the “% of control remaining” value is reported as 140.296%.
For C=CC(=O)N1CCC(c2noc3cc(F)ccc23)CC1 [3-I07, 1-[4-(6-fluoro-1,2-benzoxazol-3-yl)piperidin-1-yl]prop-2-en-1-one], the “% of control remaining” value was 95.4288%.
For CC(Cl)C(=O)NCc1cccc(Cn2cnc3ccccc32)c1 (stereo not drawn) [6-O16, N-({3-[(1H-1,3-benzodiazol-1-yl)methyl]phenyl}methyl)-2-chloropropanamide], the “% of control remaining” value was 100.39%.
With CC(Cl)C(=O)NCCC1(C)OCCO1 (stereo not drawn) [7-E17, 2-chloro-N-[2-(2-methyl-1,3-dioxolan-2-yl)ethyl]propanamide] the “% of control remaining” value was 108.634%.
CC(Cl)C(=O)Nc1cc([N+](=O)[O-])ccc1Cl (stereo not drawn) [6-I14, 2-chloro-N-(2-chloro-5-nitrophenyl)propanamide] was tested, and the “% of control remaining” value was 110.634%.
In the case of COc1c(C)cnc(CN2CCC(N(C)C(=O)C(C)Cl)CC2)c1C (stereo not drawn) [6-A04, 2-chloro-N-{1-[(4-methoxy-3,5-dimethylpyridin-2-yl)methyl]piperidin-4-yl}-N-methylpropanamide], the “% of control remaining” value is reported as 103.122%.
For N#CC(=Cc1ccccc1)C(=O)Nc1ccccc1F [8-C13, 2-cyano-N-(2-fluorophenyl)-3-phenylprop-2-enamide], the “% of control remaining” value was 103.568%.
For O=C(CCl)Nc1ccc(OC(F)F)c(Cl)c1 [4-F14, 2-chloro-N-[3-chloro-4-(difluoromethoxy)phenyl]acetamide], the “% of control remaining” value was 118.533%.
CC(Cl)C(=O)NC(=O)Nc1ccc2c(c1)OCCO2 (stereo not drawn) [5-D08, 3-(2-chloropropanoyl)-1-(2,3-dihydro-1,4-benzodioxin-6-yl)urea] was tested, and the “% of control remaining” value was 103.097%.
With C=CC(=O)NCCC(=O)N1CCCN(C(=O)c2ccccc2F)CC1 [2-D20, N-{3-[4-(2-fluorobenzoyl)-1,4-diazepan-1-yl]-3-oxopropyl}prop-2-enamide] the “% of control remaining” value was 118.364%.
For CC1CC(NC(=O)CCl)C(=O)N1c1cnn(C)c1 (stereo not drawn) [5-O08, 2-chloro-N-[5-methyl-1-(1-methyl-1H-pyrazol-4-yl)-2-oxopyrrolidin-3-yl]acetamide], the “% of control remaining” value was 114.39%.
In the case of COc1ccc(OC)c(NC(=O)CCl)c1 [6-O04, 2-chloro-N-(2,5-dimethoxyphenyl)acetamide], the “% of control remaining” value is reported as 99.7073%.
Cc1ccc(C(NC(=O)CCl)c2cccs2)cc1 (stereo not drawn) [4-H16, 2-chloro-N-[(4-methylphenyl)(thiophen-2-yl)methyl]acetamide] was tested, and the “% of control remaining” value was 122.725%.
CC(Cl)C(=O)N1CCCC(n2ncc(N(C)C(C)C)cc2=O)C1 (stereo not drawn) [6-H09, 2-[1-(2-chloropropanoyl)piperidin-3-yl]-5-[methyl(propan-2-yl)amino]-2,3-dihydropyridazin-3-one] was tested, and the “% of control remaining” value was 93.9024%.
For C=CC(=O)Nc1ccc(S(=O)(=O)N(C)C)c(C)c1 [2-E06, N-[4-(dimethylsulfamoyl)-3-methylphenyl]prop-2-enamide], the “% of control remaining” value was 97.8242%.
In the case of Cc1cc(C(=O)CCl)c(C)s1 [10-K16, 2-chloro-1-(2,5-dimethylthiophen-3-yl)ethan-1-one], the “% of control remaining” value is reported as 117.813%.
With C=CC(=O)N[C@H]1C[C@H](C)S(=O)(=O)c2sccc21 [3-C14, N-[(2S,4S)-2-methyl-1,1-dioxo-2H,3H,4H-1lambda6-thieno[2,3-b]thiopyran-4-yl]prop-2-enamide] the “% of control remaining” value was 113.539%.
O=C(CCl)NCCN1C(=O)SC(=Cc2ccccc2F)C1=O [4-A10, 2-chloro-N-(2-{5-[(2-fluorophenyl)methylidene]-2,4-dioxo-1,3-thiazolidin-3-yl}ethyl)acetamide] was tested, and the “% of control remaining” value was 109.004%.
With O=C(CCl)N1CCN(S(=O)(=O)c2cccc([N+](=O)[O-])c2)CC1 [4-C19, 2-chloro-1-[4-(3-nitrobenzenesulfonyl)piperazin-1-yl]ethan-1-one] the “% of control remaining” value was 120.819%.
In the case of COc1ccc2c(c1)OCCN(C(=O)C(C)Cl)C2 (stereo not drawn) [7-E04, 2-chloro-1-(8-methoxy-2,3,4,5-tetrahydro-1,4-benzoxazepin-4-yl)propan-1-one], the “% of control remaining” value is reported as 100.157%.
In the case of N#CC(C(=O)CCl)=C1Nc2cc(Cl)ccc2S1 [10-O08, 4-chloro-2-(5-chloro-2,3-dihydro-1,3-benzothiazol-2-ylidene)-3-oxobutanenitrile], the “% of control remaining” value is reported as 100%.
In the case of C=CC(=O)NC1CCCN(c2cc(N3CCOCC3)ncn2)C1 (stereo not drawn) [1-A08, N-{1-[6-(morpholin-4-yl)pyrimidin-4-yl]piperidin-3-yl}prop-2-enamide], the “% of control remaining” value is reported as 95.6484%.
For CC(Cl)C(=O)NCC(c1ccc(Cl)cc1)n1cccn1 (stereo not drawn) [7-J05, 2-chloro-N-[2-(4-chlorophenyl)-2-(1H-pyrazol-1-yl)ethyl]propanamide], the “% of control remaining” value was 93.2496%.
